Reference: US7592316B2, “Peptides as NS3-serine protease inhibitors of hepatitis C virus” (Schering Corporation, priority 2000, dated 2009)
*1 amine or outer side, *2 acyl side, *3 side chain or, on linkers, in order; H or OH if unused. Where a SMILES comes first, the peptide text is derived from it. [ ]: non-standard residue; d: D form. The star is where a group is joined. ξ: configuration not given here. Pro(3R,4S-CMe2) = CC1(C)[C@@H]2[C@@H](C(=O)O)NC[C@@H]21; Pro(3S,4R-CMe2) = CC1(C)[C@H]2[C@@H](C(=O)O)NC[C@H]21; Adamantane1carbonyl = O=C(C12CC3CC(CC(C3)C1)C2)*; X50 = O=C(C(=O)[*:2])C(CCCC(F)(F)F)N[*:1]; X54 = O=C(C(=O)[*:2])C(CCC(F)(F)F)N[*:1]; Benzenesulfonyl = O=S(=O)(c1ccccc1)*; Benzylsulfonyl = O=S(=O)(Cc1ccccc1)*; CH2(1-naphthyl) = c1ccc2c(C*)cccc2c1; X8 = O=C(C(=O)[*:2])C(CC1CC1)N[*:1]; Adoc = O=C(OC12CC3CC(CC(C3)C1)C2)*; X16 = O=C(C(=O)[*:2])C1(N[*:1])CC1; 1Naphthoyl = O=C(c1cccc2ccccc12)*; X4 = CCCCC(N[*:1])C(=O)C(=O)[*:2]; Hyp = O=C(O)[C@@H]1C[C@@H](O)CN1; X2 = CCCC(N[*:1])C(=O)C(=O)[*:2]; Aad = N[C@@H](CCCC(=O)O)C(=O)O; Chg = N[C@H](C(=O)O)C1CCCCC1; Phg = N[C@H](C(=O)O)c1ccccc1; Tle = CC(C)(C)[C@H](N)C(=O)O; X35 = O=C(CN[*:1])C(=O)[*:2]; ξChg = NC(C(=O)O)C1CCCCC1; ξPhg = NC(C(=O)O)c1ccccc1; Boc = CC(C)(C)OC(=O)*; ξNle = CCCCC(N)C(=O)O; Bn = c1ccc(C*)cc1; OtBu = CC(C)(C)O*; tBu = CC(C)(C)*; MEM = COCCOC*

Target: HCV NS3/NS4A protease (strain 1a) (Hepatitis C virus genotype 1a, UniProt P27958)
Test: biochemical
Conditions: Compounds prepared by Solid Phase Synthesis, Table 3; read-out: Ki* CLASS

SMILES	Ki [nM]
CCCCC(NC(=O)C(CCCC)NC(=O)CNC(=O)C(=O)C(CCC)NC(=O)[C@@H]1C[C@@H](OCc2ccccc2)CN1C(=O)C(NC(=O)c1cccc2ccccc12)C1CCCCC1)C(N)=O (some centres unmarked) (1Naphthoyl-[ξChg][Hyp](Bn)[X2]G[ξNle][ξNle]-NH2)	101 to 1000
CCCCC(NC(=O)CNC(=O)C(=O)C(CCC)NC(=O)[C@@H]1C[C@@H](OCOCCOC)CN1C(=O)C(NC(=O)C12CC3CC(CC(C3)C1)C2)C1CCCCC1)C(N)=O (some centres unmarked) (Adamantane1carbonyl-[ξChg][Hyp](MEM)[X2]G[ξNle]-NH2)	> 1000
CCCCC(NC(=O)[C@@H]1C[C@@H](OC(C)(C)C)CN1C(=O)[C@@H](NS(=O)(=O)c1ccccc1)C(C)C)C(=O)C(=O)NCC(=O)N[C@H](C(N)=O)c1ccccc1 (some centres unmarked) (Benzenesulfonyl-V[Hyp](tBu)[X4]G[Phg]-NH2)	> 1000
CCCC(NC(=O)[C@@H]1C[C@@H](OC(C)(C)C)CN1C(=O)[C@H](COC(C)(C)C)NC(=O)OC(C)(C)C)C(=O)C(=O)NCC(=O)N[C@H](C(N)=O)c1ccccc1 (some centres unmarked) (Boc-S(tBu)[Hyp](tBu)[X2]G[Phg]-NH2)	> 1000
CCCC(NC(=O)[C@@H]1C[C@@H](OC(C)(C)C)CN1C(=O)[C@@H](NC(=O)OC(C)(C)C)C(C)C)C(=O)C(=O)NCC(=O)N[C@H](C(N)=O)c1ccccc1 (some centres unmarked) (Boc-V[Hyp](tBu)[X2]G[Phg]-NH2)	101 to 1000
CCCCC(NC(=O)[C@@H]1C[C@@H](OC(C)(C)C)CN1C(=O)[C@@H](NC(=O)OC(C)(C)C)C(C)C)C(=O)C(=O)NCC(=O)N[C@H](C(N)=O)c1ccccc1 (some centres unmarked) (Boc-V[Hyp](tBu)[X4]G[Phg]-NH2)	101 to 1000
CCCC(NC(=O)[C@@H]1CCCN1C(=O)[C@@H](NC(=O)OC(C)(C)C)C1CCCCC1)C(=O)C(=O)NCC(=O)N[C@H](C(N)=O)c1ccccc1 (some centres unmarked) (Boc-[Chg]P[X2]G[Phg]-NH2)	> 1000
CCCC(NC(=O)[C@@H]1C[C@@H](OC(C)(C)C)CN1C(=O)[C@@H](NC(=O)OC(C)(C)C)C1CCCCC1)C(=O)C(=O)NCC(=O)N[C@@H](CC(=O)OC(C)(C)C)C(N)=O (some centres unmarked) (Boc-[Chg][Hyp](tBu)[X2]GD(OtBu)-NH2)	> 1000
CCCC(NC(=O)[C@@H]1C[C@@H](OC(C)(C)C)CN1C(=O)[C@@H](NC(=O)OC(C)(C)C)C1CCCCC1)C(=O)C(=O)NCC(=O)N[C@@H](CCC(=O)OC(C)(C)C)C(N)=O (some centres unmarked) (Boc-[Chg][Hyp](tBu)[X2]GE(OtBu)-NH2)	> 1000
CCCC(NC(=O)[C@@H]1C[C@@H](OC(C)(C)C)CN1C(=O)[C@@H](NC(=O)OC(C)(C)C)C1CCCCC1)C(=O)C(=O)NCC(=O)N[C@@H](COC(C)(C)C)C(N)=O (some centres unmarked) (Boc-[Chg][Hyp](tBu)[X2]GS(tBu)-NH2)	> 1000
CCCC(NC(=O)[C@@H]1C[C@@H](OC(C)(C)C)CN1C(=O)[C@@H](NC(=O)OC(C)(C)C)C1CCCCC1)C(=O)C(=O)NCC(=O)N[C@@H](CCCC(=O)OC(C)(C)C)C(N)=O (some centres unmarked) (Boc-[Chg][Hyp](tBu)[X2]G[Aad](OtBu)-NH2)	> 1000

Same assay, conditions: Table 5; HCV NS3/NS4A protease, spectrophotometric assay, 30° C., pH 6.5; read-out: Ki* Range

SMILES	Ki [nM]
CCCCC(NC(=O)[C@@H]1[C@H]2[C@@H](CN1C(=O)[C@@H](NC(=O)OC13CC4CC(CC(C4)C1)C3)C(C)(C)C)C2(C)C)C(=O)C(=O)NCC(=O)N[C@H](C(=O)N(C)C)c1ccccc1 (stereo partly drawn) (Adoc-[Tle][Pro(3S,4R-CMe2)][X4]G[Phg]-NMe2)	1 to 100
CCCCC(NC(=O)[C@@H]1[C@@H]2[C@H](CN1C(=O)[C@@H](NS(=O)(=O)Cc1ccccc1)C(C)(C)C)C2(C)C)C(=O)C(=O)NCC(=O)NC(C(=O)N(C)C)c1ccccc1 (stereo partly drawn) (Benzylsulfonyl-[Tle][Pro(3R,4S-CMe2)][X4]G[ξPhg]-NMe2)	101 to 1000
CCCC(NC(=O)[C@@H]1C[C@@H](OCc2cccc3ccccc23)CN1C(=O)[C@@H](NC(=O)OC(C)(C)C)C1CCCCC1)C(=O)C(=O)NCC(=O)N[C@H](C(=O)N(C)C)c1ccccc1 (some centres unmarked) (Boc-[Chg][Hyp](CH2(1-naphthyl))[X2]G[Phg]-NMe2)	1 to 100
CN(C)C(=O)[C@@H](NC(=O)CNC(=O)C(=O)C1(NC(=O)[C@@H]2[C@@H]3[C@H](CN2C(=O)[C@@H](NC(=O)OC(C)(C)C)C2CCCCC2)C3(C)C)CC1)c1ccccc1 (Boc-[Chg][Pro(3R,4S-CMe2)][X16]G[Phg]-NMe2)	> 1000
CN(C)C(=O)[C@@H](NC(=O)CNC(=O)C(=O)CNC(=O)[C@@H]1[C@@H]2[C@H](CN1C(=O)[C@@H](NC(=O)OC(C)(C)C)C1CCCCC1)C2(C)C)c1ccccc1 (Boc-[Chg][Pro(3R,4S-CMe2)][X35]G[Phg]-NMe2)	> 1000

Same assay, conditions: Table 6; HCV NS3/NS4A protease, 30° C., pH 6.5; read-out: Ki*

SMILES	Ki [nM]
C=CCNC(=O)C(=O)C(CC(F)(F)F)NC(=O)[C@@H]1[C@@H]2[C@H](CN1C(=O)[C@@H](NC(=O)NC(C)(C)C)C(C)(C)C)C2(C)C (some centres unmarked)	101 to 1000
CC(C)(C)NC(=O)N[C@H](C(=O)N1C[C@H]2[C@@H]([C@H]1C(=O)NC(CC1CCC1)C(=O)C(=O)NCC(=O)NC(C)(C)c1ccccc1)C2(C)C)C(C)(C)C (some centres unmarked)	101 to 1000
CCCC(NC(=O)[C@@H]1[C@@H]2[C@H](CN1C(=O)[C@@H](NC(=O)OC(C)(C)C)C1Cc3ccccc3C1)C2(C)C)C(=O)C(=O)NCCc1ccccc1 (some centres unmarked)	101 to 1000
CCCNC(=O)C(=O)C(CCC)NC(=O)[C@@H]1[C@@H]2[C@H](CN1C(=O)[C@@H](NC(=O)OC(C)(C)C)C1Cc3ccccc3C1)C2(C)C (some centres unmarked)	101 to 1000
CC(C)(C)OC(=O)N[C@H](C(=O)N1C[C@@H]2OC(C)(C)C[C@@H]2[C@H]1C(=O)NC(CC1CCC1)C(=O)C(N)=O)C1CCCCC1 (some centres unmarked)	101 to 1000
C=CCNC(=O)C(=O)C(CCCC)NC(=O)[C@@H]1[C@@H]2[C@H](CN1C(=O)[C@@H](NC(=O)OC1CCC(C)C1)C1CCCCC1)C2(C)C (some centres unmarked)	101 to 1000
C=CCNC(=O)C(=O)C(CCCC)NC(=O)[C@@H]1[C@@H]2[C@H](CN1C(=O)[C@@H](NC(=O)OC1CCCC1C)C1CCCCC1)C2(C)C (some centres unmarked)	101 to 1000
C=CCNC(=O)C(=O)C(CCCC)NC(=O)[C@@H]1[C@@H]2[C@H](CN1C(=O)[C@@H](NC(=O)CC1CCCC1)C1CCCCC1)C2(C)C (some centres unmarked)	101 to 1000
C=CCNC(=O)C(=O)C(CCCC)NC(=O)[C@@H]1[C@@H]2[C@H](CN1C(=O)[C@@H](NC(=O)NC1CC3CCC1C3)C1CCCCC1)C2(C)C (some centres unmarked)	1 to 100
C=CCNC(=O)C(=O)C(CCC)NC(=O)[C@@H]1[C@@H]2[C@H](CN1C(=O)C(NC(=O)OC1CCC(C)(C)C1)C1CCCCC1)C2(C)C (some centres unmarked)	101 to 1000
C=CCNC(=O)C(=O)C(CCC)NC(=O)[C@@H]1[C@@H]2[C@H](CN1C(=O)C(NC(=O)OCC)C1CCCCC1)C2(C)C (some centres unmarked)	101 to 1000
CC(C)(C)[C@H](NC(=O)OC1CC2CCC1C2)C(=O)N1C[C@H]2[C@@H]([C@H]1C(=O)NC(CC1CCC1)C(=O)C(N)=O)C2(Cl)Cl (some centres unmarked)	1 to 100
CC(C)[C@H](NC(=O)OC(C)(C)C)C(=O)N1C[C@H]2[C@@H]([C@H]1C(=O)NC(CC1CC1)C(=O)C(=O)NCC(=O)N[C@H](C(=O)N(C)C)c1ccccc1)C2(C)C (stereo partly drawn) (Boc-V[Pro(3R,4S-CMe2)][X8]G[Phg]-NMe2)	1 to 100
CN(C)C(=O)[C@@H](NC(=O)CNC(=O)C(=O)C(CC1CC1)NC(=O)[C@@H]1[C@@H]2[C@H](CN1C(=O)[C@@H](NC(=O)OC(C)(C)C)C1CCCCC1)C2(C)C)c1ccccc1 (stereo partly drawn) (Boc-[Chg][Pro(3R,4S-CMe2)][X8]G[Phg]-NMe2)	1 to 100
CN(C)C(=O)[C@@H](NC(=O)CNC(=O)C(=O)C(CCCC(F)(F)F)NC(=O)[C@@H]1[C@@H]2[C@H](CN1C(=O)[C@@H](NC(=O)OC(C)(C)C)C1CCCCC1)C2(C)C)c1ccccc1 (stereo partly drawn) (Boc-[Chg][Pro(3R,4S-CMe2)][X50]G[Phg]-NMe2)	1 to 100
CN(C)C(=O)[C@@H](NC(=O)CNC(=O)C(=O)C(CCC(F)(F)F)NC(=O)[C@@H]1[C@@H]2[C@H](CN1C(=O)[C@@H](NC(=O)OC(C)(C)C)C1CCCCC1)C2(C)C)c1ccccc1 (stereo partly drawn) (Boc-[Chg][Pro(3R,4S-CMe2)][X54]G[Phg]-NMe2)	1 to 100
